Laboratory results reported in PMC8124269 (Molecules, 2021).

Tested on: N NTD monomer of SARS-CoV-2
Settings: NTD (48 µM) monomer, [compound] = 75 µM; for ΔTm: versus N NTD alone; for Tm, apparent melting temperature: N NTD alone 51 ± 1

Compound | Tm, shoulder in the derivative curve [°C] | ΔTm [°C] | ΔTm (listed as paracetamol) | Tm, apparent melting temperature [°C] | ΔTm (listed as naproxen A)
CC(=O)Nc1ccc(O)cc1 [Acetaminophen (paracetamol), Acetaminophen] | 54 | −5 | did not stabilize N NTD | 46 ± 2 | –
COc1ccc2cc(C(CCC(=O)O)C(=O)O)ccc2c1 (centres unmarked) [Naproxen A] | 58 | −4 | – | 47 ± 2 | did not stabilize N NTD

Like-named read-outs stand apart in the source and are kept apart here.
